This is one part of the list. Cleavage of a single-stranded DNA pool by Rep nickase domains was read by sequencing (1 h at 37 °C, 3 µM enzyme); the outer parts of the 90-letter strands are left off. A value is the log2 ratio of uncut reads to the pool without enzyme; more negative means more cut, near 0 not cut, and no call is made. Counts are relative to all reads; where an enzyme cuts many sequences, the uncut ones exceed 0.
Assays:
Test in all cases: uncleaved DNA left, log2 of reads against the no-enzyme library (log2 ratio); higher = less cleavage (more negative = more Rep cleavage of the k-mer); sequences stand for … in CTCGTCCG…ACCGGAGA
[1] = test system: T1, Rep nickase domain of Muscovy duck circovirus
T1 sequence (residues 1-111, tag not shown): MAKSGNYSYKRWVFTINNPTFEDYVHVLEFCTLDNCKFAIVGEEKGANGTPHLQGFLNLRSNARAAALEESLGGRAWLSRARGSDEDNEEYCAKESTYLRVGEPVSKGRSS
Procedure: (§1)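 A pool of 90-nt single-stranded DNAs with seven random bases just before the constant AC of the nick site (name = the seven bases) was cut by 3 µM recombinant His6-SUMO-tagged Rep nickase domain (300 nM DNA, 50 mM HEPES pH 8.0, 50 mM NaCl, 1 mM MnCl2, 1 h, 37 °C, three replicates). Uncut DNA was amplified and sequenced.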

[2] = test system: T2, Rep nickase domain of banana bunchy top virus
T2 sequence (residues 1-94, tag not shown): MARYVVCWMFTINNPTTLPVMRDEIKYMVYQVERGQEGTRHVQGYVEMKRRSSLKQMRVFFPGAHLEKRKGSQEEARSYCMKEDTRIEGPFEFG
Procedure: as §1

[3] = test system: T3, Rep nickase domain of cabbage leaf curl virus
T3 sequence (residues 1-116, tag not shown): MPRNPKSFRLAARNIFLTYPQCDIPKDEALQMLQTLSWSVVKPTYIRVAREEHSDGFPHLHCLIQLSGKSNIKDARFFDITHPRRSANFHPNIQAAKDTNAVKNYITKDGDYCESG
Procedure: as §1

[4] = test system: T4, Rep nickase domain of chickpea chlorotic dwarf virus
T4 sequence (residues 1-124, tag not shown): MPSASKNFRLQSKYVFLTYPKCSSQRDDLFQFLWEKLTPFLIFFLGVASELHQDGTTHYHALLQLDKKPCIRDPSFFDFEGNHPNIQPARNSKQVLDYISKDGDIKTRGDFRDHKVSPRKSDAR
Procedure: as §1

[5] = test system: T5, Rep nickase domain of faba bean necrotic yellows virus
T5 sequence (residues 1-98, tag not shown): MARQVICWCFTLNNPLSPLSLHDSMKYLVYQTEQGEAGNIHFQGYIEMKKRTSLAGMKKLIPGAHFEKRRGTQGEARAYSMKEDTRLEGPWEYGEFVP
Procedure: as §1

[6] = test system: T6, Rep nickase domain of maize striate mosaic virus
T6 sequence (residues 1-117, tag not shown): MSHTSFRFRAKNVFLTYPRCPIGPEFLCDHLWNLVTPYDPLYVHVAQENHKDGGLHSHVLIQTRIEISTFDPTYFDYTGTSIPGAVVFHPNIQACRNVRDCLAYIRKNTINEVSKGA
Procedure: as §1

[7] = test system: T7, Rep nickase domain of porcine circovirus 2
T7 sequence (residues 2-116, tag not shown): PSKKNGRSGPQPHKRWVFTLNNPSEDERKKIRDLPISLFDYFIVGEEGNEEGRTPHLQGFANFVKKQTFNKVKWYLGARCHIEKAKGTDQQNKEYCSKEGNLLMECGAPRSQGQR
Procedure: as §1

[8] = test system: T8, Rep nickase domain of tomato golden mosaic virus
T8 sequence (residues 1-124, tag not shown): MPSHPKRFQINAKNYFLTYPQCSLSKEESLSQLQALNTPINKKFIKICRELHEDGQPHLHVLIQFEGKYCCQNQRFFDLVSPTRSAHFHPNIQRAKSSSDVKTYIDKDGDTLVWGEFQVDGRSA
Procedure: as §1

[9] = test system: T9, Rep nickase domain of tomato yellow leaf curl virus
T9 sequence (residues 1-136, tag not shown): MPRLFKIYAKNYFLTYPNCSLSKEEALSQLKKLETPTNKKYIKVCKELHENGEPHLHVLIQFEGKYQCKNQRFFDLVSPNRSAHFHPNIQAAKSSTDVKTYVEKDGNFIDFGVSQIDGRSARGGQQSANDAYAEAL
Procedure: as §1

[10] = test system: T10, Rep nickase domain of wheat dwarf virus
T10 sequence (residues 1-137, tag not shown): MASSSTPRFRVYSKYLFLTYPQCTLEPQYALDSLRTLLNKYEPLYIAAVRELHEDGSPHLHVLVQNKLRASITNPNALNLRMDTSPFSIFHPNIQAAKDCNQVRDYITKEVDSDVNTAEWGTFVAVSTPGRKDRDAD
Procedure: as §1

Sequence	uncleaved DNA left (log2) [1]	uncleaved DNA left (log2) [2]	uncleaved DNA left (log2) [3]	uncleaved DNA left (log2) [4]	uncleaved DNA left (log2) [5]	uncleaved DNA left (log2) [6]	uncleaved DNA left (log2) [7]	uncleaved DNA left (log2) [8]	uncleaved DNA left (log2) [9]	uncleaved DNA left (log2) [10]
AGCTCTC	-0.0742	0.0235	0.205	0.32	-0.104	0.202	-0.137	-0.0477	-0.0491	-0.00322
CATAATA	-0.158	-0.142	-0.293	-2.77	-0.0608	-0.75	-0.266	-0.00227	-0.191	-0.0382
GGCCAGA	-0.112	0.0274	0.533	1.43	-0.135	1.85	0.0112	-0.107	-0.0273	-0.0127
ACCTCGT	0.0146	-0.00843	-0.521	-0.758	0.0251	-0.988	-0.0141	-0.0183	-0.141	-0.165
AGGAAAA	0.0993	0.0688	0.339	0.831	0.0821	0.4	0.135	0.0545	0.105	0.152
TTAGATG	0.0792	0.00572	0.165	0.533	-0.0337	0.592	0.213	0.0224	-0.0138	0.00278
CTCATGT	0.0694	0.0811	-0.124	-0.453	-0.05	-0.961	-0.0749	-0.0252	0.0107	-0.0814
TCCCCTA	-0.329	-0.248	-0.0203	-0.907	-0.251	-0.53	-0.509	-0.143	-0.216	-0.282
GGTGAGG	0.0805	0.0176	0.52	1.22	-0.0645	1.66	0.224	0.0796	0.0626	0.0323
GTGGTTG	0.0859	0.0113	0.215	0.567	-0.0435	0.755	0.13	-0.0223	0.0366	0.0372
ACAGCGT	-0.0392	-0.182	-0.456	0.51	-0.0257	0.00976	0.0973	-0.00232	-0.077	-0.165
TATTTTG	-0.755	-0.0531	-0.481	-0.556	0.0136	-1.2	-0.0875	0.0725	0.0482	0.0163
GACTATA	-0.082	-0.0305	0.162	-1.54	-0.0665	0.758	-2.26	-0.123	-0.131	-0.0639
GACATAA	0.0371	0.196	0.495	1.21	0.0317	1.42	0.188	0.0548	0.125	0.196
CTCGGAG	-0.101	-0.0329	-0.672	-0.483	-0.0426	-0.858	0.163	-0.147	0.144	-0.107
ATCTTCA	-0.0978	-0.0757	-0.211	-1.4	-0.0343	-0.838	-0.397	-0.0194	-0.0149	0.0314
GCTTCCT	-0.125	-0.0154	0.0765	-1.07	-0.0408	0.224	-0.583	-0.124	-0.0372	0.0771
AATATCT	-0.244	-0.813	-1.97	-2.97	-0.00535	-0.97	-3.77	-0.0514	0.0187	-0.201
CGACTTT	0.00113	0.0305	0.0837	-0.0264	-0.0144	1.12	-0.00671	-0.204	0.0704	0.0977
AGATATA	0.00869	-0.0221	0.201	-0.792	0.157	0.111	-0.186	0.0387	0.00537	0.112
TACGGAG	-0.0455	-0.0707	-0.472	-0.728	0.0113	-1.02	0.158	0.0105	-0.00335	-0.0849

Sequence	uncleaved DNA left (log2) [1]	uncleaved DNA left (log2) [2]	uncleaved DNA left (log2) [3]	uncleaved DNA left (log2) [4]	uncleaved DNA left (log2) [5]	uncleaved DNA left (log2) [6]	uncleaved DNA left (log2) [7]	uncleaved DNA left (log2) [8]	uncleaved DNA left (log2) [9]	uncleaved DNA left (log2) [10]
GGCCGCG	0.0393	-0.0321	-0.565	0.0312	0.0105	-0.365	0.118	0.048	-0.128	-0.117
GATCTTC	0.0394	0.086	0.268	0.718	0.107	0.848	-0.0342	0.0626	0.071	0.0962
ACTAGCT	-0.0501	-0.0856	-0.708	-1.24	-0.0134	-1.24	-0.272	-0.0775	-0.0551	-0.0949
GTCTACA	-0.0318	0.024	0.228	0.545	-0.0752	1.6	0.0287	0.0766	0.054	0.0419
GTGGACA	0.117	0.156	1	2.18	0.00185	2.41	0.375	0.254	0.254	0.26
GGTGAAT	0.0282	0.0827	0.745	1.82	-0.0184	2.19	0.18	-0.0693	0.112	0.0845
GGACCAC	-0.0154	0.0762	0.764	1.51	0.0414	2.07	0.0412	-0.0372	0.064	0.248
GAAATCC	0.07	-0.0115	0.16	0.414	0.0699	0.771	0.149	0.00182	0.0376	0.0949
ATGCCGC	0.0545	0.0811	-0.494	-0.481	0.0427	-0.732	0.122	-0.0843	-0.0111	-0.0402
GGCTGTA	0.151	0.0378	0.404	1.03	-0.0555	1.7	0.149	0.0854	0.114	0.135
TCGGCTC	0.0329	0.0283	0.0641	-0.0354	-0.0389	0.274	0.081	0.000472	0.033	-0.232
GTCCCTA	-0.133	0.0619	0.256	0.772	-0.0113	1.67	0.0358	0.137	0.0874	0.0773
AGGCCGT	0.107	0.104	0.349	0.431	0.11	-0.00723	0.0431	0.14	0.148	0.165
CATGATT	-0.155	-0.883	-0.877	-2.9	-0.077	-0.703	-2.1	-0.268	-0.132	-0.371
CTACTGT	0.115	0.0622	0.0416	-0.0843	-0.0324	0.848	-0.0331	-0.171	0.00412	0.106
GTAAGAG	0.0397	0.0908	-0.11	-0.118	0.0615	-0.583	0.048	0.0305	0.0144	0.0293
ATCAGAG	0.046	-0.109	-0.611	-0.369	0.049	-1.18	0.168	-0.0306	-0.0241	-0.155
GGCAATG	0.147	0.107	0.244	0.951	0.0911	1.57	0.163	0.136	0.056	0.0911
TCAGTCT	-0.142	-0.121	-0.24	-2.08	-0.128	-0.591	-0.206	-0.207	-0.225	-0.228
AAGAGCG	-0.00841	0.0195	-0.825	-0.466	0.0814	-1.18	0.181	0.0412	0.0555	-0.0248
GTCTCCT	-0.0564	0.018	0.202	0.257	-0.178	1.54	-0.226	-0.00936	0.00843	0.0139

Sequence	uncleaved DNA left (log2) [1]	uncleaved DNA left (log2) [2]	uncleaved DNA left (log2) [3]	uncleaved DNA left (log2) [4]	uncleaved DNA left (log2) [5]	uncleaved DNA left (log2) [6]	uncleaved DNA left (log2) [7]	uncleaved DNA left (log2) [8]	uncleaved DNA left (log2) [9]	uncleaved DNA left (log2) [10]
GGGCAGG	0.0634	0.056	0.835	1.81	0.00885	2.19	0.194	0.123	-0.16	0.12
ATGTTCT	-1.15	-0.26	-0.159	-2.21	-0.416	-0.772	-3.61	-0.0417	-0.0558	-0.152
TAAGACG	0.133	0.144	-0.432	-0.606	0.103	-0.885	0.204	0.0605	0.0285	0.0825
GATCCTT	-0.0105	0.0865	0.531	-0.378	0.0292	1.53	-0.18	0.127	0.138	0.143
CTTTACT	-3.45	-1.72	-0.577	-2.74	-0.0837	-0.982	-3.74	-0.0648	0.025	-0.196
CCTAAAT	0.167	0.0511	0.12	-0.455	0.109	-0.352	-0.0563	0.0322	-0.0273	0.00946
TAAGGTT	-0.0609	0.108	-2.7	-1.76	0.0597	1.6	0.0982	-0.0647	-0.106	-0.459
CGAACCT	0.0804	-0.00143	-0.0994	-1.23	-0.0233	-0.174	-0.434	-0.209	0.0263	0.15
TGTCGAC	0.0282	-0.134	0.0687	0.306	-0.0557	0.146	-0.116	-0.0802	0.0132	-0.0858
GGGCGCC	0.134	0.00166	0.761	1.65	0.101	1.97	0.223	-0.0173	-0.0292	0.0582
GAACGAG	-0.146	-0.105	0.385	0.982	-0.0778	0.568	0.0202	-0.115	0.0283	0.0542
GCCTTAG	-0.0423	-0.0289	-0.47	-0.426	-0.0329	-0.959	-0.0186	-0.11	0.0121	-0.0594
GATAGTT	0.056	-0.437	0.216	-1.19	-0.0836	0.784	-1.45	0.000468	0.0267	0.0516
CAGATGC	0.0458	-0.136	-0.491	-0.545	-0.0443	-1.04	0.161	-0.099	-0.00151	-0.0484
GGAGACG	0.12	0.101	0.744	1.66	0.131	1.89	0.326	0.0253	0.141	0.073
CGCAACC	-0.0219	0.0137	0.017	-0.597	0.0952	-0.0601	-0.68	-0.0418	0.0654	0.0368
GATTAAG	0.0678	-0.0174	-0.769	-0.353	0.0246	-1.14	0.0893	-0.0946	-0.01	-0.107
TCTGACT	0.106	0.0266	0.0448	-0.3	-0.000319	0.572	0.0127	-0.0184	-0.0312	0.068
GTGTGGG	-0.0207	-0.185	-0.278	-0.18	-0.149	-0.412	0.0106	-0.0138	-0.0469	-0.181
CCGTTGG	-0.0253	0.0141	-0.535	-0.602	0.0767	-1	0.133	-0.0251	0.0061	-0.191

Reference: the supplement of paper PMC7826260
